Here are results for 43 compounds from publication PMC4336329 (PLoS ONE, 2015).

SMILES strings stand for the structures. In all, about 310,000 compounds went through this assay and about 14,000 (4.5%) showed an effect of 50% or more. The effect is printed as a negative number. The list shows a part of the results.
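Note: peak tail current of the secondary pulse compared with the same well before compound.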

Sequence of human ether-à-go-go-related gene (hERG) potassium channel (Q12809 whole entry, looked up): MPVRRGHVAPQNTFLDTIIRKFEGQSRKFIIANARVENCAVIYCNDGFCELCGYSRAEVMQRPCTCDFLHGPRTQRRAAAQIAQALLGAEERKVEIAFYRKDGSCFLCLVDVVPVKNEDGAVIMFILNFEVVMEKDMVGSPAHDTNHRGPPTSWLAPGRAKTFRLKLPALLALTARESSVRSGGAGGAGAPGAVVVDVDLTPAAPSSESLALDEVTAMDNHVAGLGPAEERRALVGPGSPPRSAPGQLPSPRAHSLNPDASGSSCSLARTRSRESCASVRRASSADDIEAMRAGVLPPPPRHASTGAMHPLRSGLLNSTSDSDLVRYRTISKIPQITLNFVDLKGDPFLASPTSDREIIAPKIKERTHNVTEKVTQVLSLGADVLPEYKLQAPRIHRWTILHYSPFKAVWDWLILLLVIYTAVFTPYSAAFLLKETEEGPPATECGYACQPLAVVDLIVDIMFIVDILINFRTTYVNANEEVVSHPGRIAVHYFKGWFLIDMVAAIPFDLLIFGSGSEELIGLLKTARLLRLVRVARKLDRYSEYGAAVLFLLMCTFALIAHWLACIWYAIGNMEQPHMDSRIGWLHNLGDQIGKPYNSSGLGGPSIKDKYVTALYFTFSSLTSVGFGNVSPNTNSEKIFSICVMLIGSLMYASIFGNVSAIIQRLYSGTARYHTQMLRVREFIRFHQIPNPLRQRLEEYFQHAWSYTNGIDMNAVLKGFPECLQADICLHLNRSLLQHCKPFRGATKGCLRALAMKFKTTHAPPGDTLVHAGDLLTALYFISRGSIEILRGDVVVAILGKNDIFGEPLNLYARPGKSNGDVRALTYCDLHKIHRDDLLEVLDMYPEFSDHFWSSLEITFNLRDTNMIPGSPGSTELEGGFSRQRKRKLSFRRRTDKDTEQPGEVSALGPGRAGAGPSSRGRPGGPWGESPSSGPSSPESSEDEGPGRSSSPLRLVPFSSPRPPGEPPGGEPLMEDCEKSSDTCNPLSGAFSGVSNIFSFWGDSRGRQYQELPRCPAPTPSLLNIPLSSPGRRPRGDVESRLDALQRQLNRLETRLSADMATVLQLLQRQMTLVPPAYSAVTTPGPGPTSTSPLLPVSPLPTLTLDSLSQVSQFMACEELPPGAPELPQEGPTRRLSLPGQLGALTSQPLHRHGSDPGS

This assay has as its target human ether-à-go-go-related gene (hERG) potassium channel (human, UniProt Q12809). Description: primary screen, population patch clamp on CHO cells stably expressing hERG.
Take `O=C(Nc1ccc(-c2noc(-c3cccs3)n2)cc1)c1cccnc1`: the “hERG current change (%, negative = inhibition) at 10uM” value is reported as -3.79%. To `Cc1ccc(/C=N/NC(=O)C(C)Oc2ccccc2[N+](=O)[O-])s1` (stereo not shown) belongs -4.11%.

On to `CC(=O)Oc1ccc(N2C(=O)[C@@H]3[C@H](C2=O)[C@H]2c4ccccc4C=NN2[C@@H]3C(C)=O)cc1`, for which the “hERG current change (%, negative = inhibition) at 10uM” value is listed as -18.2%. Take `O=C(/C=C/c1ccccc1Cl)NCCN1CCOCC1`: the “hERG current change (%, negative = inhibition) at 10uM” value is listed as -9.72%. To `CNC(=O)c1c(NC(=O)CCS(=O)(=O)c2ccc(C)cc2)sc2c1CCN(C(=O)OC)C2` belongs -25.3%; to `CCOC(=O)c1c(NC(=O)C(=O)N/N=C/c2ccc(O)c(OC)c2)sc2c1CCCCC2`, 9.58%; to `Cc1ccc(C)c(S(=O)(=O)N(C)Cc2cccs2)c1`, -18.3%.

For `NC(=O)c1ccsc1NC(=O)COC(=O)/C=C/c1ccccc1`, the “hERG current change (%, negative = inhibition) at 10uM” value is recorded as -9.78%. To `Cn1cc(C(=O)N/N=C/C(Br)=C\c2ccccc2)ccc1=O` belongs 4.8%; to `Cc1cc(C(=O)NNC(=S)NCc2ccccc2)cs1`, 22.3%. To `CCOc1cc(C2/C(=C(/O)c3ccc(S(=O)(=O)N4CCCCC4)cc3)C(=O)C(=O)N2CCOC)ccc1O` (stereo not shown) belongs 17.8%; to `O=C(NCCCN1CCOCC1)c1cc2c(s1)CCC2`, 4.7%. With `COc1cc(C(=O)N/N=C/c2cc([N+](=O)[O-])cs2)cc(OC)c1OC` the figure was -8.26%. For the compound `Cc1c(C(=O)Nc2ccc(F)cc2)oc2ccc(S(=O)(=O)N3CCCC3)cc12`, the “hERG current change (%, negative = inhibition) at 10uM” value is recorded as 10.5%.

As to `COc1ccc(CCN=C(N)NS(=O)(=O)c2ccc(F)cc2)cc1`, the “hERG current change (%, negative = inhibition) at 10uM” value was -0.981%. With `CCc1noc(C)c1C(=O)OCC(=O)Nc1c(F)cccc1F` the figure was 11.5%; with `Cc1ccc(OCCC(=O)OCC(=O)Nc2ccc(C)cc2Cl)cc1`, 15.2%; with `CC(NC(=O)c1ccco1)C12CC3CC(CC(C3)C1)C2` (stereo not shown), -50.1%. Regarding `Cc1ccccc1NC(=O)C(=O)Nc1ccccc1C`, the “hERG current change (%, negative = inhibition) at 10uM” value stood at 17.7%. As for `COc1cccc(C(=O)c2c[nH]c(C(=O)NCc3cccs3)c2)c1`, the “hERG current change (%, negative = inhibition) at 10uM” value is given as -0.271%. To `COc1ccc(CCNC(=O)CSc2nnc(-c3ccco3)c(-c3ccco3)n2)cc1OC` belongs 5.59%; to `O=C(Nc1ccc(Cl)cc1)N1CC2CC(C1)c1cccc(=O)n1C2` (stereo not shown), 4.31%; to `CCCCC(CC)C(=O)Nc1cc(C(=O)NCCC)ccc1N1CCC2(CC1)CC(c1cccc(Br)c1)=NO2` (stereo not shown), -7.85%. With `Cn1c(Oc2ccc(Cl)cc2)c(C=O)c2ccccc21`, the “hERG current change (%, negative = inhibition) at 10uM” value is -3.01%. For the compound `CCc1nnc(NC(=O)CC(=O)Nc2ccccc2C(=O)O)s1`, the “hERG current change (%, negative = inhibition) at 10uM” value is reported as -5.14%. With `O=C1/C(=C/c2cccc(F)c2)CSc2sccc21` the figure was -19.6%; with `CC(=O)OCC(=O)[C@@]12OC3(CCCC3)O[C@@H]1C[C@H]1[C@@H]3CCC4=CC(=O)C=C[C@]4(C)[C@@]3(F)[C@@H](O)C[C@@]12C`, 4.57%. With `CCN1CCN(Cc2nc3ccc([N+](=O)[O-])cc3c(=O)n2-c2ccc(OC)cc2OC)CC1` the figure was -52%; with `CCOC(=O)C1CCN(Cc2cccc(Oc3ccc(Cl)cc3)c2)CC1`, 3.3%. With `Cc1nn(C)c(C)c1CN(C)C(=O)c1cc2nc(-c3ccco3)cc(C(F)(F)F)n2n1` the figure was -6.85%; with `Cc1csc(SCC(=O)Nc2ccccc2[N+](=O)[O-])n1`, 2.69%; with `O=C(Nc1ccccc1C(F)(F)F)c1cc(-c2ccco2)on1`, 9.32%.

For the compound `CCOc1ccc(NC(=O)CC(Cc2ccc(Cl)cc2)C(=O)O)cc1` (stereo not shown), the “hERG current change (%, negative = inhibition) at 10uM” value came out at 2.51%. To `CCc1c(C)sc(NC(=S)N2CCN(C(=O)C3CCCO3)CC2)c1C(=O)OC` (stereo not shown) belongs -13%; to `O=C(NS(=O)(=O)c1ccccc1Cl)c1ccc[nH]1`, 13.7%. With `COc1ccccc1N1CCN(C(=O)c2ccc(S(=O)(=O)N3CCCC3)cc2)CC1` the figure was -0.519%; with `CC1(C)CC(=O)C2=C(C1)N(Cc1cccnc1)C(=O)C2(NC(=O)c1cccnc1)C(F)(F)F` (stereo not shown), 18.9%. Regarding `Cc1cc(C(=O)NCc2ccc3c(c2)OCO3)n(-c2ccccc2)n1`, the “hERG current change (%, negative = inhibition) at 10uM” value is reported as -14.8%. With `CC(Oc1ccc(Br)cc1)C(=O)N(C)CC(=O)Nc1ccc(N2CCOCC2)cc1` (stereo not shown) the figure was 2.99%. To `COc1cccc(NS(=O)(=O)NC(=O)c2c(C)[nH]c3ccccc23)c1` belongs 17.9%. For `CCOC(=O)N1CCC(NC(=O)c2cc(S(=O)(=O)N(CC)CC)ccc2F)CC1`, the “hERG current change (%, negative = inhibition) at 10uM” value is listed as 4.33%. To `CCCOc1ccc(/C=N/Nc2ccccc2[N+](=O)[O-])c(O)c1` belongs 18.7%.

In the case of `CC(C)Cn1c(SCc2nnc(-c3cccs3)o2)nc(O)cc1=O`, the “hERG current change (%, negative = inhibition) at 10uM” value is recorded as 10.1%.
